{"source": "paper PMC4336329", "about": "(PLoS ONE, 2015)", "note": "Out of some 310,000 compounds screened, about 14,000 (4.5%) showed an effect of 50% or more. Effects have a minus sign here. This is one part of the list.", "data": [{"molecular_target": "human ether-à-go-go-related gene (hERG) potassium channel (human, UniProt Q12809)", "sequence (Q12809 whole entry, looked up)": "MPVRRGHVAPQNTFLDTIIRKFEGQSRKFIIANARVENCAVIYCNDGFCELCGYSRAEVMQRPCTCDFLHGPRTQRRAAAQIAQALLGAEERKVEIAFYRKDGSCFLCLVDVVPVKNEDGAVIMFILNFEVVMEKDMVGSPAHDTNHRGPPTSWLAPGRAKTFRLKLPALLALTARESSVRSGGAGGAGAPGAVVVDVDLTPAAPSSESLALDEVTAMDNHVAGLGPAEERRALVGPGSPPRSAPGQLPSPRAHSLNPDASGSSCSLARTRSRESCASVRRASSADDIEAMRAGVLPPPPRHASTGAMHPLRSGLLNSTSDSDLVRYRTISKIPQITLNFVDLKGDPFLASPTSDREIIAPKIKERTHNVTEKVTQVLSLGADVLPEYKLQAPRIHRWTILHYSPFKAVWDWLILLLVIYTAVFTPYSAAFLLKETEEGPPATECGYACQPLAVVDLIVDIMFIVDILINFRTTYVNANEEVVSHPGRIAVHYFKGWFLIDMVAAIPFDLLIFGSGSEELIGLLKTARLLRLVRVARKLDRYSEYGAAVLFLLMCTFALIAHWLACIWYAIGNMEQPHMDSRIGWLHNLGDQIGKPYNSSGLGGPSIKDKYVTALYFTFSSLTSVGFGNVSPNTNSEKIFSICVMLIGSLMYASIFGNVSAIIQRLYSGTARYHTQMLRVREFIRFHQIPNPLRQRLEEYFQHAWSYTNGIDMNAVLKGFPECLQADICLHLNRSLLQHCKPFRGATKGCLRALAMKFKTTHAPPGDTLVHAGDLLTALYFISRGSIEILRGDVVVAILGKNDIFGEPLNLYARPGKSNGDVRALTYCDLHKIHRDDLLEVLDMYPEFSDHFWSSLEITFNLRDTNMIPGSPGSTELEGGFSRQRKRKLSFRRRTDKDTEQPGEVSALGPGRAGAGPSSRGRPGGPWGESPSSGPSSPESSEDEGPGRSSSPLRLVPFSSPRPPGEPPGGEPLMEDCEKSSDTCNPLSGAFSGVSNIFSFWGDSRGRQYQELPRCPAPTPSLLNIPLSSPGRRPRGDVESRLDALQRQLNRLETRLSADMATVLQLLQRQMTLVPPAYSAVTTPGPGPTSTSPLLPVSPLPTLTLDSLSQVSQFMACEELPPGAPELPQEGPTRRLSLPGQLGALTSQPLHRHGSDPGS", "assay": "primary screen, population patch clamp on CHO cells stably expressing hERG", "units": {"hERG current change (%, negative = inhibition) at 10uM": "%"}, "values": [{"compound": "Cc1ccc(C)c(NC(=O)C2(C)CC3c4ccccc4C2c2ccccc23)c1", "note": "(stereo not shown);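 note: peak tail current of the secondary pulse compared with the same well before compound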", "hERG current change (%, negative = inhibition) at 10uM": 2.55}, {"compound": "CC(C)(C)OC(=O)N1CCC[C@H]1C(=O)N/N=C/c1cccc2nccnc12", "hERG current change (%, negative = inhibition) at 10uM": -9.27}, {"compound": "CN(CC(=O)Nc1ccc(F)cc1)C(=O)COC(=O)/C=C/c1ccc(OC(F)F)cc1", "hERG current change (%, negative = inhibition) at 10uM": -25.5}, {"compound": "CCOc1ccc(N(CC(=O)N2CCCC2)S(=O)(=O)c2c(C)noc2C)cc1", "hERG current change (%, negative = inhibition) at 10uM": -10.7}, {"compound": "O=C(CSc1nc(=O)n(CCCN2CCOCC2)c2c1CCC2)Nc1cccc(F)c1", "hERG current change (%, negative = inhibition) at 10uM": -37.4}, {"compound": "CC(C)c1ccc(NC(=O)CSc2nnc(CN3CCOCC3)n2C)cc1", "hERG current change (%, negative = inhibition) at 10uM": 15.4}, {"compound": "NC(=S)N/N=C/c1c(O)ccc2ccccc12", "hERG current change (%, negative = inhibition) at 10uM": 12}, {"compound": "Cc1ccc(C)c(S(=O)(=O)N2CCN(C(=O)Nc3ccccc3)CC2)c1", "hERG current change (%, negative = inhibition) at 10uM": -26.1}, {"compound": "CCN1C(=O)[C@H]2[C@@H](c3ccc(-c4ccc(OC)cc4)c(OC)c3)N[C@@](C)(C(=O)OC)[C@H]2C1=O.O=C(O)C(F)(F)F", "hERG current change (%, negative = inhibition) at 10uM": 14.4}, {"compound": "COc1cccc(Nc2ncc(C(=O)O)c3ccccc23)c1", "hERG current change (%, negative = inhibition) at 10uM": -1.48}, {"compound": "COc1ccc(S(=O)(=O)Nc2cc(C(=O)NCCC(C)C)ccc2N2CCOCC2)cc1", "hERG current change (%, negative = inhibition) at 10uM": -15.3}, {"compound": "C=CCN(CC=C)S(=O)(=O)c1ccc(C(=O)Nc2sc3c(c2C(N)=O)CCCCC3)cc1", "hERG current change (%, negative = inhibition) at 10uM": 7.75}, {"compound": "CSc1ccc(S(=O)(=O)NCC(=O)OCC(=O)N(Cc2ccccc2)C(C)C)cc1[N+](=O)[O-]", "hERG current change (%, negative = inhibition) at 10uM": -15.2}, {"compound": "N#CC1=C(N)Oc2cc(O)ccc2C1c1ccc(Br)s1", "note": "(stereo not shown)", "hERG current change (%, negative = inhibition) at 10uM": 20.3}, {"compound": "Cc1nn(CC(=O)N2CCc3ccccc3C2)c(C)c1Cl", "hERG current change (%, negative = inhibition) at 10uM": 6.96}, {"compound": "O=C(O)c1ccccc1NC(=O)c1cc(-c2ccccc2)nc2ccccc12", "hERG current change (%, negative = inhibition) at 10uM": 4.95}, {"compound": "CC1CCCC(NC(=O)COC(=O)CCc2ccccc2)C1C", "note": "(stereo not shown)", "hERG current change (%, negative = inhibition) at 10uM": 27.1}, {"compound": "O=C(Nc1nc(-c2ccc(F)cc2)cs1)c1ccc(N2C(=O)CCC2=O)cc1", "hERG current change (%, negative = inhibition) at 10uM": 7.15}, {"compound": "COc1ccc(S(=O)(=O)Nc2ccc(F)c(Cl)c2)cc1OC", "hERG current change (%, negative = inhibition) at 10uM": 7.26}, {"compound": "Cc1ccc(Cn2nnnc2CN2CCC(n3nnc4cc(C)ccc43)CC2)cc1", "hERG current change (%, negative = inhibition) at 10uM": -65.2}, {"compound": "COc1ccc(CC(=O)Nc2ccc(N(C)C)c3ccccc23)cc1", "hERG current change (%, negative = inhibition) at 10uM": 0.703}, {"compound": "COc1cccc(COC(=O)C2CCN(S(=O)(=O)c3ccc(Cl)cc3)CC2)c1OC", "hERG current change (%, negative = inhibition) at 10uM": -1.49}, {"compound": "O=C1/C(=C/c2cccnc2)Sc2ccccc21", "hERG current change (%, negative = inhibition) at 10uM": 4.72}, {"compound": "CN(Cc1ccccn1)C(=O)CC1C(=O)NCCN1Cc1cccc(Oc2ccccc2)c1", "note": "(stereo not shown)", "hERG current change (%, negative = inhibition) at 10uM": 3.2}, {"compound": "CC(C)C(NC(=O)c1c(F)cccc1F)C(=O)NCCc1ccc(S(N)(=O)=O)cc1", "note": "(stereo not shown)", "hERG current change (%, negative = inhibition) at 10uM": 4.56}, {"compound": "COc1ccc(-c2cc(-c3cccs3)c(C#N)c(SCC(=O)NCc3ccccc3)n2)cc1", "hERG current change (%, negative = inhibition) at 10uM": 8.07}, {"compound": "O=C(NC(=S)Nc1ccc2[nH]c(=O)[nH]c2c1)c1ccccc1[N+](=O)[O-]", "hERG current change (%, negative = inhibition) at 10uM": -8.83}, {"compound": "O=C(CNCc1ccco1)Nc1cc(S(=O)(=O)N2CCOCC2)ccc1N1CCCC1", "hERG current change (%, negative = inhibition) at 10uM": -14.4}, {"compound": "COc1ccc(S(=O)(=O)N2CCOC2CNC(=O)C(=O)NCc2ccccc2Cl)cc1", "note": "(stereo not shown)", "hERG current change (%, negative = inhibition) at 10uM": 0.139}, {"compound": "O=C(NCc1ccncc1)c1cc(C(=O)C2CCCCC2)c[nH]1", "hERG current change (%, negative = inhibition) at 10uM": 19.8}, {"compound": "Cc1cccc(NC(=O)C2CCCN(S(=O)(=O)c3ccc4[nH]c(=O)ccc4c3)C2)c1", "note": "(stereo not shown)", "hERG current change (%, negative = inhibition) at 10uM": -3.99}, {"compound": "CCOc1ccc(N=C2SCCCN2C)cc1.I", "hERG current change (%, negative = inhibition) at 10uM": 7.92}, {"compound": "CCN1C(=O)C(=O)N(CC(=O)Nc2ccccc2OC(F)F)C1=O", "hERG current change (%, negative = inhibition) at 10uM": 12.1}, {"compound": "O=C(NCc1ccc(F)cc1)C1CCCN(c2nc3ccsc3c(=O)s2)C1", "note": "(stereo not shown)", "hERG current change (%, negative = inhibition) at 10uM": -15.8}, {"compound": "O=C(CNS(=O)(=O)c1ccccc1)NCC(=O)OCc1ccc(C(=O)c2ccccc2)cc1", "hERG current change (%, negative = inhibition) at 10uM": -61.6}, {"compound": "Cc1cc(CNC(=O)Cc2c(F)cccc2Cl)nn1C", "hERG current change (%, negative = inhibition) at 10uM": 1.93}, {"compound": "Cn1cnnc1SCC(=O)Nc1ccc(N2CCCCC2)cc1", "hERG current change (%, negative = inhibition) at 10uM": 9}, {"compound": "O=C(O)c1ccccc1Nc1ccc([N+](=O)[O-])cc1C(=O)O", "hERG current change (%, negative = inhibition) at 10uM": 5.75}, {"compound": "Fc1cc(F)c(F)c(SCCc2ccncc2)c1F", "hERG current change (%, negative = inhibition) at 10uM": 0.775}, {"compound": "CCN1CCN(C(=O)c2c(-c3c(F)cccc3Cl)noc2C)CC1.Cl", "hERG current change (%, negative = inhibition) at 10uM": 9.61}, {"compound": "O=S(=O)(c1ccccc1)N(Cc1ccc(Cl)cc1)c1ccncc1", "hERG current change (%, negative = inhibition) at 10uM": -6.02}, {"compound": "FC(F)(F)c1ccc(Cl)c(-n2c(-c3cc(C4CC4)[nH]n3)n[nH]c2=S)c1", "hERG current change (%, negative = inhibition) at 10uM": 10.2}, {"compound": "O=C(CCC(=O)N1CCN(c2ccc(Cl)c(Cl)c2)CC1)c1ccccc1", "hERG current change (%, negative = inhibition) at 10uM": -16}]}]}
